Whole data set: some 33,000 sequences, median “E-score (-0.5 to 0.5)” near -0.035, cut for the highest 2% near 0.34. This is one part of the list.
Each sequence was assayed against T1, Mot3 (UniProt P54785) (assay: PBM E-score (8-mer binding enrichment) (E-score (-0.5 to 0.5)); higher = stronger / more preferred TF binding; most listed sequences are background and not binding sites). Conditions: protein concentration: 200 nM; construct: GST-full length.
T1 sequence: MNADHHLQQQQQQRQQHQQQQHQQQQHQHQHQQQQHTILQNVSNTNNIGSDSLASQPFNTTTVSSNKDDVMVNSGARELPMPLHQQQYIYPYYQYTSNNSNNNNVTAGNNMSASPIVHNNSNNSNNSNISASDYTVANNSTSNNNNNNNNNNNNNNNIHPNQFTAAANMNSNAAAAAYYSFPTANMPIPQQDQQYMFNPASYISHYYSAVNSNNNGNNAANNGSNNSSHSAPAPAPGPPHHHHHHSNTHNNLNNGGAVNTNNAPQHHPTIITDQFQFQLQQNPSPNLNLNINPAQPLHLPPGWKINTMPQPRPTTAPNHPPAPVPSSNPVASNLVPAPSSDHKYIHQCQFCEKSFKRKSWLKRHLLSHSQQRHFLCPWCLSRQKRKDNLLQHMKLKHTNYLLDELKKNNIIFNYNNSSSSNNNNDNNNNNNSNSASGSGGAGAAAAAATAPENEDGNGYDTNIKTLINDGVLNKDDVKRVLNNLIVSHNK
Method in brief: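 Full-length yeast transcription factors or their DNA-binding domains, GST-tagged and expressed with PURExpress, were applied at about 100-200 nM to universal all-10-mer Agilent arrays. These arrays had been made double-stranded by primer extension on fresh or once-stripped slides. Detection used fluorescent anti-GST, normalisation used masliner, and E-scores for ungapped eight-base words pooled with reverse complements came from the Universal PBM Analysis Suite.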

Row | Sequence | PBM E-score
1 | CAACTTTA | 0.212
2 | CCGAATAC | 0.0773
3 | AAATAATG | 0.176
4 | GGACGAAC | 0.0273
5 | ATATGGTA | 0.0654
6 | AACGTAGT | 0.101
7 | CACATTGA | 0.0498
8 | GTAAGATA | 0.0659
9 | ACCCTGGC | -0.174
10 | CGTTGTAA | 0.333
11 | GCTAAGCA | -0.148
12 | AAAGGTTA | 0.132
13 | ACCGCCGC | 0.107
14 | ATTAGCAA | 0.1
15 | GGTGATAC | -0.11
16 | AAAAGCAG | -0.102
17 | ACCGCGTC | 0.0492
18 | TATCGTAA | 0.171
19 | CAGCTTGG | -0.214
20 | ACGGGTAA | 0.0622
21 | GCGAAACC | -0.00806
22 | CACCGCAC | -0.225
23 | GCATGGCA | -0.113
24 | CCGAGAGC | -0.17
25 | AAAGGAAC | 0.456

Row | Sequence | PBM E-score
26 | TCTATAGA | -0.152
27 | GCGCCCAA | -0.167
28 | CTAACCTC | -0.0869
29 | AGGCCCAT | -0.219
30 | GAGGCCCC | -0.242
31 | CCCAAGCC | -0.261
32 | CAGCCACA | -0.11
33 | AATCGATT | 0.265
34 | CTGGCACC | -0.232
35 | CTGCGTAC | 0.155
36 | CATGAACG | 0.00316
37 | AGTCTCAC | -0.162
38 | GGGGGCGA | -0.315
39 | CACAGCAG | -0.0438
40 | ACGGGAGC | -0.091
41 | ACACGTGC | 0.326
42 | ATAAGGAC | -0.06
43 | CAACGGTA | -0.136
44 | AATACGTA | 0.239
45 | ATTATCAC | 0.147
46 | TATCTTAA | 0.153
47 | TAGGTCCA | -0.0377
48 | CCAGATGA | -0.0722
49 | CCTCGGTC | -0.129
50 | CATTAGAG | -0.263

Row | Sequence | PBM E-score
51 | CTTAGAAC | 0.164
52 | AGACTCAA | -0.162
53 | CTAAAACA | 0.283
54 | AATGAATG | 0.114
55 | TACACTCA | 0.21
56 | GGGGCGGA | -0.374
57 | ATGTCGAA | 0.298
58 | CATCCGGA | -0.257
59 | ACCCACCA | -0.0196
60 | ATTCCCGA | -0.113
61 | ACGTTTAC | 0.214
62 | CATACACA | 0.219
63 | AATTAAAA | 0.172
64 | CGAATGGA | 0.00359
65 | TGTTTTAA | 0.257
66 | CGATATGC | -0.142
67 | CATTACAC | 0.384
68 | GGTTCTAA | -0.0493
69 | CAGTTTGG | -0.122
70 | GCGTGAGC | -0.0991
71 | GTCCACCA | -0.141
72 | CCTCTTTC | -0.324
73 | GCTCGTGA | -0.265
74 | ACCACGAT | 0.127
75 | CTCTAGTA | 0.0832

Row | Sequence | PBM E-score
76 | AATTCTTC | -0.0362
77 | AGTAGTCC | -0.106
78 | CATTCTGG | -0.0991
79 | CTGAAGGA | -0.0822
80 | AAGTGGCG | -0.0307
81 | CTCTAACA | 0.0488
82 | CGTGGTAA | 0.155
83 | ATGTTTCG | 0.0343
84 | ATTTGTGC | 0.191
85 | CCACCTGG | -0.0941
86 | CCCTTGAA | -0.223
87 | ATCCACCG | -0.206
88 | ACCGCTAT | -0.159
89 | TAAGGAGA | -0.0944
90 | GCCGGGCA | -0.206
91 | AGAGATAG | -0.0788
92 | ATACTTGA | 0.145
93 | GCCAGCGC | -0.236
94 | AACCCCTA | -0.042
95 | TCTAAGAA | 0.00589
96 | ACAATTAC | 0.296
97 | AGACCGCG | 0.113
98 | ACTCGTAG | 0.039
99 | CAGACTGC | -0.158
100 | GTGAATGA | -0.0845

Row | Sequence | PBM E-score
101 | AAGGTACG | 0.436
102 | ACTTTGGG | -0.119
103 | GCAATGCA | -0.0836
104 | AGAGCCTG | 0.341
105 | AGTCAGAC | -0.176
106 | GAAAATGC | 0.0221
107 | CCTATCAG | 0.0767
108 | AGCCGATC | -0.0373
109 | CAGATACC | -0.188
110 | ATCAACGG | -0.0358
111 | ACTGGTTG | -0.125
112 | GTCCTTGA | 0.0337
113 | AAAAGCGA | -0.0616
114 | CATCGTGC | 0.0815
115 | CCTATGCG | 0.104
116 | AACCGTCG | -0.0662
117 | ATCCCGCA | 0.00244
118 | GCATCTTA | -0.0612
119 | AACCCCCC | -0.356
120 | ATGCCCCC | -0.266
121 | CGCAGAGC | -0.218
122 | CTAACTGC | -0.181
123 | AGCCCCCC | -0.399
124 | ACGGCAAA | 0.0341
125 | CAATATCG | -0.0904

Row | Sequence | PBM E-score
126 | ACCCTTTA | 0.167
127 | CGGAGCCA | -0.223
128 | CCATTACA | 0.337
129 | GAGGGCAC | 0.00821
130 | ATTATAAG | -0.0293
131 | GCTTAGGA | -0.141
132 | ACATACAG | 0.265
133 | CATCAAGG | 0.127
134 | GTACTAAC | 0.197
135 | CCAATTAC | 0.276
136 | AATGGTAG | 0.117
137 | GACCACAA | -0.245
138 | GTCGCTGA | -0.0942
139 | CCGAAAAC | -0.0182
140 | AAGACTGA | -0.0243
141 | GAGACTAC | -0.216
142 | ACCTACAG | 0.0747
143 | CTCCGTGA | -0.132
144 | GAATAAGA | -0.151
145 | CTGGCCGC | -0.246
146 | CTCAGTAA | -0.0379
147 | CCTGAGTA | 0.199
148 | AATTAAGC | 0.103
149 | CTTGGTGA | -0.105
150 | AAATGCTG | 0.107

Row | Sequence | PBM E-score
151 | AGCGATGG | -0.23
152 | TCATTGAA | -0.0956
153 | GAGCGGGA | -0.177
154 | CTGGAATC | -0.0268
155 | CATTTCGA | 0.0462
156 | CACAGGCC | 0.0987
157 | GGGCACAC | 0.178
158 | TAGAATAA | 0.152
159 | CATAGCCC | -0.0765
160 | ATAAACTG | -0.0611
161 | CTTTAACC | 0.077
162 | AACTATGC | -0.0251
163 | ACGTTGAG | 0.00685
164 | AAGCCAAA | 0.00529
165 | CCGGAAGG | 0.0191
166 | CATCTGGC | -0.139
167 | AAATTATA | 0.0781
168 | GCGCGAGC | -0.381
169 | CCACCGAG | -0.276
170 | CTTGAAAG | 0.0362
171 | CTATAGGC | 0.272
172 | AGCTCAAG | -0.242
